Measurements from the supplement of paper PMC3334620.
Whole data set: some 33,000 sequences, median “E-score (-0.5 to 0.5)” near -0.043, cut for the highest 2% near 0.37. The list shows a part of the results.

biological target: T1, Upc2 (UniProt Q12151); experiment: PBM E-score (8-mer binding enrichment) (E-score (-0.5 to 0.5)); higher = stronger / more preferred TF binding; most listed sequences are background and not binding sites; conditions: protein concentration: 200 nM; construct: GST-full length
T1 sequence: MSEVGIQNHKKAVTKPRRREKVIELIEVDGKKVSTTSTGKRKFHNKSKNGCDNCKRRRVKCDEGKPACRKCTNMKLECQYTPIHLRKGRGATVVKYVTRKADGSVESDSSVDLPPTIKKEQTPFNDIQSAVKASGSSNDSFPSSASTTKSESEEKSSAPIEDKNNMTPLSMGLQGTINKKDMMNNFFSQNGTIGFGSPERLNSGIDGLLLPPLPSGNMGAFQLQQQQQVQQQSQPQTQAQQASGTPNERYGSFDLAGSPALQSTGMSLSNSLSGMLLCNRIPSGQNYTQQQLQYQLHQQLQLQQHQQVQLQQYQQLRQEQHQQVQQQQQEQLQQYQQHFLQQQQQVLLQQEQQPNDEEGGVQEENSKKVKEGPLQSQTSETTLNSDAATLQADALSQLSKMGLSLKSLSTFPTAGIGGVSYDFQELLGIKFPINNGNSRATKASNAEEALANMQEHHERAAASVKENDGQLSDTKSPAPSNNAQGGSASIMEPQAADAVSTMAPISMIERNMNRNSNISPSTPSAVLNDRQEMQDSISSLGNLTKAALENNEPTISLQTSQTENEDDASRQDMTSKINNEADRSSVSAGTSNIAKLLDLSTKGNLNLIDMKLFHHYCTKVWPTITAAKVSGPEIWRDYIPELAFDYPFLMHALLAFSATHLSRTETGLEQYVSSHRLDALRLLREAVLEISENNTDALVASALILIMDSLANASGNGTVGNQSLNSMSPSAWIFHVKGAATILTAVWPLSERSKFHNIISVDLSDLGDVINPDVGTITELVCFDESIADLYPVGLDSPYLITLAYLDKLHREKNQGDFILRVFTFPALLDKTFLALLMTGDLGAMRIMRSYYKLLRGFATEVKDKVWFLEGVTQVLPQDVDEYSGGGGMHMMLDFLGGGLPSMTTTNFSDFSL
Outline: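 Each ungapped eight-base word and its reverse complement, pooled, received an E-score from the Universal PBM Analysis Suite. Underlying scans, normalised with masliner, recorded fluorescent anti-GST bound to GST-tagged yeast transcription factors. These were applied at about 100-200 nM to universal all-10-mer Agilent arrays double-stranded by primer extension.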

Sequence	PBM E-score
AAAGGCGC	0.123
TCAAGTCA	-0.214
AACCAGGC	-0.0684
TCGTGAGA	0.0253
CTCGCACC	0.131
ACGTTTTC	0.164
GTCTGAAC	0.141
AAGAATTC	-0.0268
AAGGCGAA	-0.1
ATTAAAAA	0.0273
AGGCAACC	-0.271
GTCCGGCA	-0.229
GTCACGGA	-0.283
CAGATTGG	-0.303
ATATGAAC	0.234
CCAGTGAC	-0.217
ACCGGCAT	-0.0195
CACAAATG	-0.0189
ACTAGACG	0.129
GTACGGCA	0.364
GCGGACCC	-0.0237
CAACGGAA	0.0204
AAGAAGTA	0.0759
AAGATACA	0.0107
ATATGGGG	-0.188

Sequence	PBM E-score
AGAGAGCG	-0.138
CACCAAGC	0.0027
ATGGGGGC	-0.205
CAGTCCCC	-0.306
GGTCTGTA	0.0803
TGGACCAA	-0.238
ATAGACAC	0.0447
CCAACCGG	-0.0322
AGTTCCTC	-0.161
AAATCAGC	-0.0865
GAACAATC	-0.0705
CATGCAGG	-0.188
CTTCGCCC	-0.235
AGTGATGC	-0.0793
GTTGAATA	0.17
AGATACAC	0.0793
ACCGGGCT	0.0294
GCCGATCA	-0.0833
GATTCGAA	0.0467
ACTAATTA	0.00126
CACCATCC	-0.32
CATCACAC	0.00102
AGATTGCT	-0.117
CAACGCAA	-0.0507
GGCGAACA	-0.14

Sequence	PBM E-score
ACATGGGG	-0.258
CCCGGCGG	-0.224
CGTCGTCC	-0.154
GCTAACAC	-0.0792
AAATGAGC	-0.0772
ATATCCAC	-0.0735
CGTACCTC	0.361
ATTCGGCG	-0.116
AGGCGTAT	0.244
GGGTATGA	0.0776
CCAAAAGA	0.0834
AGGCGAGC	-0.133
CACCGACG	0.0873
GTTAGCAA	-0.0503
CCCATAAG	-0.141
AGCCTCCT	-0.19
ACCCTAGG	-0.151
AATGGCTA	-0.0196
ACGCCTCT	-0.0777
CGCCGATA	-0.0179
ACCGAAGC	0.0937
ATCGCGCG	0.0846
ACGAAGGC	0.308
CGAGCCTC	0.192
CCGCAGGA	-0.28

Sequence	PBM E-score
ACAGAAGT	-0.171
ATCGATCA	0.0619
TCACCTGA	-0.284
GCCAGCCC	-0.202
CCGTAAAC	0.396
CCATGGAC	-0.201
AGGCGACC	-0.0928
GATCATCA	-0.084
CTTGACAA	-0.052
GAGGCGAA	-0.145
CGAGGGTC	0.0856
ATGTGGGA	-0.173
GCTGTACA	-0.0266
AATTTGCG	0.0522
GAACATTC	-0.124
CACTGGAA	-0.0126
GACAAGCA	-0.159
ATTCTTTC	-0.00883
GAGCGAGA	0.28
AAGCTCGT	0.359
ACTGGAAA	-0.0688
GGCCTGAC	-0.236
ACATTAGG	-0.188
AGTGCTTG	0.035
CGAATGTC	0.0431

Sequence	PBM E-score
ATTTGCCG	0.154
CTCTCCTA	0.0887
AACATACG	0.39
AATGCCCG	0.102
AAGCACCA	-0.0736
ACCAATAG	-0.36
CCTCTGCC	-0.364
GGACGCGA	-0.0406
AGCTGTAT	-0.0312
ACCTTACC	-0.0775
TAGCAACA	0.143
CCGCTAGC	-0.11
CGAGTTTC	0.13
AGTGGTTG	-0.0996
ACGGCGTG	0.169
GAAGGACC	-0.276
GAATAGCC	-0.235
AACAGCGA	-0.0446
ATGAACAA	-0.0285
GAGGCTAC	-0.0974
AATAGGCA	-0.103
AAAGGTCG	0.026
CTTACGTC	0.071
TCATTAAA	0.0186
TCTTAAAA	0.0224

Sequence	PBM E-score
CTTAGTAA	-0.0811
GTTATGGA	-0.044
ACTGTAGG	-0.117
ACGAAGGA	0.379
ACTCTACA	-0.123
AGCACGCT	-0.248
CACTCCGA	-0.262
TCCATGCA	-0.139
CTCTCTGC	-0.00538
ACCCACGT	0.0198
AAACGGTA	0.367
ATCGTTGA	0.23
AGCATTAG	-0.26
ATCGTCAA	0.0601
CACCTTAG	-0.244
ACGGACTC	0.0345
GCAACCCC	-0.238
ACTGAGAA	0.0418
ATGACGAG	0.0327
ATAAATGG	-0.11
CGGGATTA	-0.0694
ACATTTAT	-0.0104
GCTCTTTA	0.0811
AGTAAATC	-0.188
GGATAAGA	0.0378

Sequence	PBM E-score
AACACGCC	0.0131
GAAATGTC	-0.0124
AAGATTGA	-0.156
GAATAGTA	0.042
CGTATCCA	0.314
CTAAGAAG	-0.0917
CAAACCCA	0.0481
GAGCGACC	0.217
CACTCCCG	-0.155
CGGACAAG	0.0883
ATCAAAGG	-0.273
ATGAGACC	-0.15
CAAGGGCA	-0.263
ACGCCATC	-0.0963
CCACCGAA	-0.00574
ATTCATGA	-0.129
AATTATCC	0.117
ACATGGTA	0.0707
TACATTAA	0.186
AGATTTAG	-0.0164
CTCTTGTC	0.00178
ATGGCCAA	-0.145
GTGTAATA	-0.00421
GCGGGCCA	-0.0555
CCATTATA	0.0163

Sequence	PBM E-score
ATGGTTTA	0.0958
CTCGTTGC	0.356
TACTGGGA	-0.0123
TGTGTTAA	0.0703
AGCGAGGG	0.245
CGAAAGAA	0.0719
AGTGCGAC	0.00954
ACCCGAGG	0.135
CGTCTTGA	-0.0191
AACAGAAA	-0.0922
ACGATGGC	0.229
GTACAACA	0.245
GTACACAA	0.192
GCAGGAAC	0.0847
CTATGACA	-0.213
ATACATGC	0.169
CGCGTTCA	0.242
CATGCCGG	0.0173
TAGCGACA	0.139
CACCAGAG	-0.121
AGTTTTAG	-0.0963
GTTACTTA	-0.00158
GCGCCCGA	0.0653
AAGACGCA	-0.185
AGGAAGAC	-0.255

Sequence	PBM E-score
ACACGATG	0.166
GGTATAAC	0.135
ATCGGCGC	-0.0516
ACGCCTCA	-0.151
GCATTAAC	0.125
AAATAAGG	-0.00115
AGCTCCAC	-0.221
GTGCTTAA	-0.059
CCAGAAGG	-0.179
ACATTTTC	-0.0382
GACCTCCC	-0.187
TAGGATAA	0.106
CGCTAACC	0.143
ATCGTCAC	-0.0261
TCGGGGCA	-0.109
TCATCGGA	-0.14
ACCTAATA	0.196
GGACATGA	-0.069
ATCCTAAA	0.111
